A word on the pKi: it is the Ki on a negative log10 scale, so that one unit is a factor of ten.

pKi: −log10 of the molar value.

In one assay the target is isolated recombinant JAK1 kinase domain (Homo sapiens (Human), UniProt P23458). The settings on record: read-out: JAK1 Ki.
For the compound `O=C(N[C@H]1CN2CCC1CC2)c1ccc(Nc2nc3c(N4CCC(O)(c5ccc(Cl)cc5)CC4)cccn3n2)cc1` [Example 1-89, 4-[[8-[4-(4-chlorophenyl)-4-hydroxy-1-piperidyl]-[1,2,4]triazolo[1,5-a]pyridin-2-yl]amino]-N-[(3R)-quinuclidin-3-yl]benzamide], the pKi was 8.72.

The assay is the same for the next values; noted with them: read-out: JAK1 Ki; isolated recombinant JAK1 kinase domain, 25 μM ATP.
For `CN1CCN(C(=O)C2COCCN2C(=O)c2ccc(Nc3nc4c(N5CCC(O)(c6ccc(Cl)cc6)CC5)cccn4n3)cc2)CC1` (stereo not drawn) [Example 1-78, [4-[[8-[4-(4-chlorophenyl)-4-hydroxy-1-piperidyl]-[1,2,4]triazolo[1,5-a]pyridin-2-yl]amino]phenyl]-[3-(4-methylpiperazine-1-carbonyl)morpholin-4-yl]methanone], the pKi was 8.49. Consider `Cc1cc(N(C)C)cc(C2CCCN2C(=O)c2ccc(Nc3nc4c(N5CCC(O)(c6ccc(Cl)cc6)CC5)cccn4n3)cc2)n1` (stereo not drawn) [Example 1-79, [4-[[8-[4-(4-chlorophenyl)-4-hydroxy-1-piperidyl]-[1,2,4]triazolo[1,5-a]pyridin-2-yl]amino]phenyl]-[2-[4-(dimethylamino)-6-methyl-2-pyridyl]pyrrolidin-1-yl]methanone], for which the pKi was 8.32. Take `CN(C)CCC1CCCN(C(=O)c2ccc(Nc3nc4c(N5CCC(O)(c6ccc(Cl)cc6)CC5)cccn4n3)cc2)C1` (stereo not drawn) [Example 1-80, [4[[8-[4-(4-chlorophenyl)-4-hydroxy-1-piperidyl]-[1,2,4]triazolo[1,5-a]pyridin-2-yl]amino]phenyl]-[3-[2-(dimethylamino)ethyl]-1-piperidyl]methanone]: the negative-log Ki (pKi) is 8.46. For the compound `CN1CCC2(CC1)CN(C(=O)c1ccc(Nc3nc4c(N5CCC(O)(c6ccc(Cl)cc6)CC5)cccn4n3)cc1)C2` [Example 1-81, [4-[[8-[4-(4-chlorophenyl)-4-hydroxy-1-piperidyl]-[1,2,4]triazolo[1,5-a]pyridin-2-yl]amino]phenyl]-(7-methyl-2,7-diazaspiro[3.5]nonan-2-yl)methanone], the pKi was 9.09. On to `CN1CCN(C(=O)c2ccc(Nc3nc4c(N5CCC(O)(c6ccc(Cl)cc6)CC5)cccn4n3)cc2)C(C(=O)N(C)C)C1` (stereo not drawn) [Example 1-82, 1-[4-[[8-[4-(4-chlorophenyl)-4-hydroxy-1-piperidyl]-[1,2,4]triazolo[1,5-a]pyridin-2-yl]amino]benzoyl]-N,N,4-trimethyl-piperazine-2-carboxamide], for which the pKi was 8.51.

As for `O=C(c1ccc(Nc2nc3c(N4CCC(O)(c5ccc(Cl)cc5)CC4)cccn3n2)cc1)N1CCC(c2ccncc2)CC1` [Example 1-83, [4-[[8-[4-(4-chlorophenyl)-4-hydroxy-1-piperidyl]-[1,2,4]triazolo[1,5-a]pyridin-2-yl]amino]phenyl]-[4-(4-pyridyl)-1-piperidyl]methanone], the pKi is 8.49. Take `O=C(c1ccc(Nc2nc3c(N4CCC(O)(c5ccc(Cl)cc5)CC4)cccn3n2)cc1)N1CCN(CCO)CC1` [Example 1-84, [4-[[8-[4-(4-chlorophenyl)-4-hydroxy-1-piperidyl]-[1,2,4]triazolo[1,5-a]pyridin-2-yl]amino]phenyl]-[4-(2-hydroxyethyl)piperazin-1-yl]methanone]: the negative logarithm of the Ki (pKi) was 8.63.

As for `CN(CCc1ccccn1)C(=O)c1ccc(Nc2nc3c(N4CCC(O)(c5ccc(Cl)cc5)CC4)cccn3n2)cc1` [Example 1-85, 4-[[8-[4-(4-chlorophenyl)-4-hydroxy-1-piperidyl]-[1,2,4]triazolo[1,5-a]pyridin-2-yl]amino]-N-methyl-N-[2-(2-pyridyl)ethyl]benzamide], the pKi is 8.60. Turning to `CN(C)C1CCN(C(=O)c2ccc(Nc3nc4c(N5CCC(O)(c6ccc(Cl)cc6)CC5)cccn4n3)cc2)CC1` [Example 1-86, [4-[[8-[4-(4-chlorophenyl)-4-hydroxy-1-piperidyl]-[1,2,4]triazolo[1,5-a]pyridin-2-yl]amino]phenyl]-[4-(dimethylamino)-1-piperidyl]methanone], the pKi was 8.70. Take `CN1CCC(N(C)C(=O)c2ccc(Nc3nc4c(N5CCC(O)(c6ccc(Cl)cc6)CC5)cccn4n3)cc2)C1` (stereo not drawn) [Example 1-87, 4-[[8-[4-(4-chlorophenyl)-4-hydroxy-1-piperidyl]-[1,2,4]triazolo[1,5-a]pyridin-2-yl]amino]-N-methyl-N-(1-methylpyrrolidin-3-yl)benzamide]: the pKi is 8.32. Turning to `CN(C)C1CCN(C(=O)c2ccc(Nc3nc4c(N5CCC(O)(c6ccc(Cl)cc6)CC5)cccn4n3)cc2)C1` (stereo not drawn) [Example 1-88, [4-[[8-[4-(4-chlorophenyl)-4-hydroxy-1-piperidyl]-[1,2,4]triazolo[1,5-a]pyridin-2-yl]amino]phenyl]-[3-(dimethylamino)pyrrolidin-1-yl]methanone], the negative-log Ki (pKi) was 8.57.

As for `CC1CN(CCNC(=O)c2ccc(Nc3nc4c(N5CCC(O)(c6ccc(Cl)cc6)CC5)cccn4n3)cc2)CC(C)O1` (stereo not drawn) [Example 1-91, 4-[[8-[4-(4-chlorophenyl)-4-hydroxy-1-piperidyl]-[1,2,4]triazolo[1,5-a]pyridin-2-yl]amino]-N-[2-(2,6-dimethylmorpholin-4-yl)ethyl]benzamide], the pKi was 8.59. For the compound `CN1CC(NC(=O)c2ccc(Nc3nc4c(N5CCC(O)(c6ccc(Cl)cc6)CC5)cccn4n3)cc2)C1` [Example 1-92, 4-[[8-[4-(4-chlorophenyl)-4-hydroxy-1-piperidyl]-[1,2,4]triazolo[1,5-a]pyridin-2-yl]amino]-N-(1-methylazetidin-3-yl)benzamide], the pKi is 8.77. On the same count and under the same terms, then `CC(C)(CN1CCOCC1)NC(=O)c1ccc(Nc2nc3c(N4CCC(O)(c5ccc(Cl)cc5)CC4)cccn3n2)cc1` [Example 1-93, 4-[[8-[4-(4-chlorophenyl)-4-hydroxy-1-piperidyl]-[1,2,4]triazolo[1,5-a]pyridin-2-yl]amino]-N-(1,1-dimethyl-2-morpholino-ethyl)benzamide], with 8.21; and `O=C(NCCN1CCC(O)CC1)c1ccc(Nc2nc3c(N4CCC(O)(c5ccc(Cl)cc5)CC4)cccn3n2)cc1` [Example 1-95, 4-[[8-[4-(4-chlorophenyl)-4-hydroxy-1-piperidyl]-[1,2,4]triazolo[1,5-a]pyridin-2-yl]amino]-N-[2-(4-hydroxy-1-piperidyl)ethyl] benzamide], with 8.71; and `CN1CCN(CCCNC(=O)c2ccc(Nc3nc4c(N5CCC(O)(c6ccc(Cl)cc6)CC5)cccn4n3)cc2)CC1` [Example 1-96, 4-[[8-[4-(4-chlorophenyl)-4-hydroxy-1-piperidyl]-[1,2,4]triazolo[1,5-a]pyridin-2-yl]amino]-N-[3-(4-methylpiperazin-1-yl)propyl]benzamide], with 8.76. On to `CN1CCN(CCNC(=O)c2ccc(Nc3nc4c(N5CCC(O)(c6ccc(Cl)cc6)CC5)cccn4n3)cc2)CC1` [Example 1-97, 4-[[8-[4-(4-chlorophenyl)-4-hydroxy-1-piperidyl]-[1,2,4]triazolo[1,5-a]pyridin-2-yl]amino]-N-[2-(4-methylpiperazin-1-yl)ethyl]benzamide], for which the pKi is 8.70. Take `O=C(NCCCN1CCOCC1)c1ccc(Nc2nc3c(N4CCC(O)(c5ccc(Cl)cc5)CC4)cccn3n2)cc1` [Example 1-98, 4-[[8-[4-(4-chlorophenyl)-4-hydroxy-1-piperidyl]-[1,2,4]triazolo[1,5-a]pyridin-2-yl]amino]-N-(3-morpholinopropyl) benzamide]: the pKi is 8.84. Still for that read-out and setting: then `O=C(NCCN1CCOCC1)c1ccc(Nc2nc3c(N4CCC(O)(c5ccc(Cl)cc5)CC4)cccn3n2)cc1` [Example 1-101, 4-[[8-[4-(4-chlorophenyl)-4-hydroxy-1-piperidyl]-[1,2,4]triazolo[1,5-a]pyridin-2-yl]amino]-N-(2-morpholinoethyl)benzamide], with 8.71; and `CN1CCCC1CCNC(=O)c1ccc(Nc2nc3c(N4CCC(O)(c5ccc(Cl)cc5)CC4)cccn3n2)cc1` (stereo not drawn) [Example 1-102, 4-[[8-[4-(4-chlorophenyl)-4-hydroxy-1-piperidyl]-[1,2,4]triazolo[1,5-a]pyridin-2-yl]amino]-N-[2-(1-methylpyrrolidin-2-yl)ethyl]benzamide], with 8.76; and `CN1CCCCC1CNC(=O)c1ccc(Nc2nc3c(N4CCC(O)(c5ccc(Cl)cc5)CC4)cccn3n2)cc1` (stereo not drawn) [Example 1-103, 4-[[8-[4-(4-chlorophenyl)-4-hydroxy-1-piperidyl]-[1,2,4]triazolo[1,5-a]pyridin-2-yl]amino]-N-[(1-methyl-2-piperidyl)methyl]benzamide], with 8.81.

In the case of `CN1CCC(CNC(=O)c2ccc(Nc3nc4c(N5CCC(O)(c6ccc(Cl)cc6)CC5)cccn4n3)cc2)CC1` [Example 1-104, 4-[[8-[4-(4-chlorophenyl)-4-hydroxy-1-piperidyl]-[1,2,4]triazolo[1,5-a]pyridin-2-yl]amino]-N-[(1-methyl-4-piperidyl)methyl]benzamide], the negative-log Ki (pKi) was 8.49. For the compound `O=C(NCCN1CCCC1)c1ccc(Nc2nc3c(N4CCC(O)(c5ccc(Cl)cc5)CC4)cccn3n2)cc1` [Example 1-106, 4-[[8-[4-(4-chlorophenyl)-4-hydroxy-1-piperidyl]-[1,2,4]triazolo[1,5-a]pyridin-2-yl]amino]-N-(2-pyrrolidin-1-ylethyl)benzamide], the pKi was 8.64. The same measure, in the same setting: in the case of `CC(CN(C)C)NC(=O)c1ccc(Nc2nc3c(N4CCC(O)(c5ccc(Cl)cc5)CC4)cccn3n2)cc1` (stereo not drawn) [Example 1-107, 4-[[8-[4-(4-chlorophenyl)-4-hydroxy-1-piperidyl]-[1,2,4]triazolo[1,5-a]pyridin-2-yl]amino]-N-[2-(dimethylamino)-1-methyl-ethyl]benzamide] it was 8.56. Regarding `CN(C)CCNC(=O)c1ccc(Nc2nc3c(N4CCC(O)(c5ccc(Cl)cc5)CC4)cccn3n2)cc1` [Example 1-108, 4-[[8-[4-(4-chlorophenyl)-4-hydroxy-1-piperidyl]-[1,2,4]triazolo[1,5-a]pyridin-2-yl]amino]-N-[2-(dimethylamino)ethyl] benzamide], the pKi was 8.56.

For `Cc1cccnc1CN(C)C(=O)c1ccc(Nc2nc3c(N4CCC(O)(c5ccc(Cl)cc5)CC4)cccn3n2)cc1` [Example 1-109, 4-[[8-[4-(4-chlorophenyl)-4-hydroxy-1-piperidyl]-[1,2,4]triazolo[1,5-a]pyridin-2-yl]amino]-N-methyl-N-[(3-methyl-2-pyridyl)methyl]benzamide], the pKi is 8.39.

Values taken from patent US9873709B2 (priority 2013, dated 2018).
